From the supplement of paper PMC8728848
This is one part of the list.

Columns and labels:
Experiment in all cases: glycan array binding signal (z-score within array); higher = stronger binding
Conditions in all cases: glycan notation: IUPAC condensed, linker removed; mutation: R186S
[1] = biological target: Neu5Ac(a2-3)Gal(b1-3)GlcNAc(b1-3)Gal(b1-3)GlcNAc
Method in brief: (§1)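 Arrays were curated from the Consortium for Functional Glycomics database, 3228 in total, and kept only where the protein sequence was available. Binding is expressed as a within-array Z-score. This score was averaged across arrays of the same protein sequence at different concentrations or buffers and across linkers, and negative values can be read as non-binding.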

[2] = biological target: Neu5Ac(a2-3)Gal(b1-3)GlcNAc(b1-3)Gal(b1-4)GlcNAc
Method in brief: as §1

[3] = biological target: Neu5Ac(a2-3)Gal(b1-3)GlcNAc(b1-3)GalNAc
Method in brief: as §1

[4] = biological target: Neu5Ac(a2-3)Gal(b1-3)GlcNAc6S
Method in brief: as §1

[5] = biological target: Neu5Ac(a2-3)Gal(b1-3)[Fuc(a1-4)]GlcNAc
Method in brief: as §1

[6] = biological target: Neu5Ac(a2-3)Gal(b1-3)[Fuc(a1-4)]GlcNAc(b1-3)Gal(b1-3)[Fuc(a1-4)]GlcNAc
Method in brief: as §1

[7] = biological target: Neu5Ac(a2-3)Gal(b1-3)[Fuc(a1-4)]GlcNAc(b1-3)Gal(b1-4)[Fuc(a1-3)]GlcNAc
Method in brief: as §1

[8] = biological target: Neu5Ac(a2-3)Gal(b1-3)[Neu5Ac(a2-3)Gal(b1-4)]GlcNAc
Method in brief: as §1

[9] = biological target: Neu5Ac(a2-3)Gal(b1-3)[Neu5Ac(a2-6)]GalNAc
Method in brief: as §1

Neu5Ac(a2-3)Gal(b1-4)Glc = biological target: Neu5Ac(a2-3)Gal(b1-4)Glc
Method in brief: as §1

[10] = biological target: Neu5Ac(a2-3)Gal(b1-4)GlcNAc
Method in brief: as §1

[11] = biological target: Neu5Ac(a2-3)Gal(b1-4)GlcNAc(b1-2)Man(a1-3)[GlcNAc(b1-2)Man(b1-4)GlcNAc(b1-2)Man(a1-6)]Man(b1-4)GlcNAc(b1-4)GlcNAc
Method in brief: as §1

[12] = biological target: Neu5Ac(a2-3)Gal(b1-4)GlcNAc(b1-2)Man(a1-3)[Neu5Ac(a2-6)Gal(b1-4)GlcNAc(b1-2)Man(a1-6)]Man(b1-4)GlcNAc(b1-4)GlcNAc
Method in brief: as §1

[13] = biological target: Neu5Ac(a2-3)Gal(b1-4)GlcNAc(b1-3)Gal(b1-3)GlcNAc
Method in brief: as §1

[14] = biological target: Neu5Ac(a2-3)Gal(b1-4)GlcNAc(b1-3)Gal(b1-4)GlcNAc
Method in brief: as §1

[15] = biological target: Neu5Ac(a2-3)Gal(b1-4)GlcNAc(b1-3)Gal(b1-4)GlcNAc(b1-3)Gal(b1-4)GlcNAc
Method in brief: as §1

[16] = biological target: Neu5Ac(a2-3)Gal(b1-4)GlcNAc(b1-3)Gal(b1-4)[Fuc(a1-3)]GlcNAc
Method in brief: as §1

[17] = biological target: Neu5Ac(a2-3)Gal(b1-4)GlcNAc(b1-3)GalNAc
Method in brief: as §1

[18] = biological target: Neu5Ac(a2-3)Gal(b1-4)GlcNAc(b1-6)[Gal(b1-3)]GalNAc
Method in brief: as §1

[19] = biological target: Neu5Ac(a2-3)Gal(b1-4)GlcNAc(b1-6)[Neu5Ac(a2-3)Gal(b1-3)]GalNAc
Method in brief: as §1

[20] = biological target: Neu5Ac(a2-3)Gal(b1-4)GlcNAc6S
Method in brief: as §1

[21] = biological target: Neu5Ac(a2-3)Gal(b1-4)[Fuc(a1-3)]GlcNAc
Method in brief: as §1

[22] = biological target: Neu5Ac(a2-3)Gal(b1-4)[Fuc(a1-3)]GlcNAc(b1-3)Gal
Method in brief: as §1

[23] = biological target: Neu5Ac(a2-3)Gal(b1-4)[Fuc(a1-3)]GlcNAc(b1-3)Gal(b1-4)GlcNAc
Method in brief: as §1

[24] = biological target: Neu5Ac(a2-3)Gal(b1-4)[Fuc(a1-3)]GlcNAc(b1-3)Gal(b1-4)[Fuc(a1-3)]GlcNAc(b1-3)Gal(b1-4)[Fuc(a1-3)]GlcNAc
Method in brief: as §1

[25] = biological target: Neu5Ac(a2-3)Gal(b1-4)[Fuc(a1-3)]GlcNAc(b1-3)GalNAc
Method in brief: as §1

[26] = biological target: Neu5Ac(a2-3)Gal(b1-4)[Fuc(a1-3)]GlcNAc(b1-6)[Gal(b1-3)]GalNAc
Method in brief: as §1

[27] = biological target: Neu5Ac(a2-3)Gal(b1-4)[Fuc(a1-3)]GlcNAc(b1-6)[Neu5Ac(a2-3)Gal(b1-3)]GalNAc
Method in brief: as §1

[28] = biological target: Neu5Ac(a2-3)Gal(b1-4)[Fuc(a1-3)]GlcNAc6S
Method in brief: as §1

[29] = biological target: Neu5Ac(a2-3)Gal6S(b1-4)GlcNAc
Method in brief: as §1

[30] = biological target: Neu5Ac(a2-3)Gal6S(b1-4)[Fuc(a1-3)]GlcNAc
Method in brief: as §1

Neu5Ac(a2-3)GalNAc = biological target: Neu5Ac(a2-3)GalNAc
Method in brief: as §1

[31] = biological target: Neu5Ac(a2-3)GalNAc(b1-4)GlcNAc
Method in brief: as §1

[32] = biological target: Neu5Ac(a2-3)[GalNAc(b1-4)]Gal(b1-4)Glc
Method in brief: as §1

[33] = biological target: Neu5Ac(a2-3)[GalNAc(b1-4)]Gal(b1-4)GlcNAc
Method in brief: as §1

[34] = biological target: Neu5Ac(a2-3)[GalNAc(b1-4)]Gal(b1-4)GlcNAc(b1-3)GalNAc
Method in brief: as §1

[35] = biological target: Neu5Ac(a2-3)[Neu5Ac(a2-6)]GalNAc
Method in brief: as §1

Neu5Ac(a2-6)Gal = biological target: Neu5Ac(a2-6)Gal
Method in brief: as §1

Neu5Ac(a2-6)Gal(b1-4)Glc = biological target: Neu5Ac(a2-6)Gal(b1-4)Glc
Method in brief: as §1

[36] = biological target: Neu5Ac(a2-6)Gal(b1-4)GlcNAc
Method in brief: as §1

B1: Gal 3 (Homo sapiens), P17931 (protein)
chain: MADNFSLHDALSGSGNPNPQGWPGAWGNQPAGAGGYPGASYPGAYPGQAPPGAYPGQAPPGAYHGAPGAYPGAPAPGVYPGPPSGPGAYPSSGQPSAPGAYPATGPYGAPAGPLIVPYNLPLPGGVVPRMLITILGTVKPNANILDFQRGNDVAFHFNPRFNENNRRVIVCNTKLDNNWGREESQSVFPFESGKPFKIQVLVEPDHFKVAVNDAHLLQYNHRVKKLNEISKLGISGDIDLTSASYTMI
glycan array binding signal (z-score) [1]: -0.068
glycan array binding signal (z-score) [2]: -0.069
glycan array binding signal (z-score) [3]: -0.085
glycan array binding signal (z-score) [4]: -0.09
glycan array binding signal (z-score) [5]: -0.081
glycan array binding signal (z-score) [6]: -0.045
glycan array binding signal (z-score) [7]: -0.082
glycan array binding signal (z-score) [8]: -0.076
glycan array binding signal (z-score) [9]: -0.054
glycan array binding signal (z-score) (Neu5Ac(a2-3)Gal(b1-4)Glc): -0.06
glycan array binding signal (z-score) [10]: -0.058
glycan array binding signal (z-score) [11]: -0.063
glycan array binding signal (z-score) [12]: -0.027
glycan array binding signal (z-score) [13]: -0.076
glycan array binding signal (z-score) [14]: -0.071
glycan array binding signal (z-score) [15]: -0.046
glycan array binding signal (z-score) [16]: -0.104
glycan array binding signal (z-score) [17]: -0.038
glycan array binding signal (z-score) [18]: -0.094
glycan array binding signal (z-score) [19]: -0.051
glycan array binding signal (z-score) [20]: -0.006
glycan array binding signal (z-score) [21]: -0.059
glycan array binding signal (z-score) [22]: -0.065
glycan array binding signal (z-score) [23]: -0.014
glycan array binding signal (z-score) [24]: -0.095
glycan array binding signal (z-score) [25]: 0.182
glycan array binding signal (z-score) [26]: -0.033
glycan array binding signal (z-score) [27]: -0.027
glycan array binding signal (z-score) [28]: -0.075
glycan array binding signal (z-score) [29]: -0.05
glycan array binding signal (z-score) [30]: -0.086
glycan array binding signal (z-score) (Neu5Ac(a2-3)GalNAc): -0.069
glycan array binding signal (z-score) [31]: -0.062
glycan array binding signal (z-score) [32]: -0.029
glycan array binding signal (z-score) [33]: -0.082
glycan array binding signal (z-score) [34]: -0.078
glycan array binding signal (z-score) [35]: -0.068
glycan array binding signal (z-score) (Neu5Ac(a2-6)Gal): -0.036
glycan array binding signal (z-score) (Neu5Ac(a2-6)Gal(b1-4)Glc): -0.055
glycan array binding signal (z-score) [36]: -0.065
